Measured values from US20240254223A1 (NOVIMMUNE, published 2024).

T1: high affinity trimeric IL-2R (IL-2Rα, IL-2Rβ and IL-2Rγ) on HEK-Blue IL-2 cells (UniProt P01589 22-272; P14784 27-551; P31785 23-369)
T1 sequence (looked up) 1: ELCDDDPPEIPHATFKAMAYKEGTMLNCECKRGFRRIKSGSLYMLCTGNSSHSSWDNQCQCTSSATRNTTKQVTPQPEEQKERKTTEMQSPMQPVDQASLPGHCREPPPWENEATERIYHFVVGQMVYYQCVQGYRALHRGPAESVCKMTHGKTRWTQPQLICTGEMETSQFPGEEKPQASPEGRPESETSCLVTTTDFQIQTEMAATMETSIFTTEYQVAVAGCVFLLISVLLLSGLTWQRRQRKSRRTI
T1 sequence (looked up) 2: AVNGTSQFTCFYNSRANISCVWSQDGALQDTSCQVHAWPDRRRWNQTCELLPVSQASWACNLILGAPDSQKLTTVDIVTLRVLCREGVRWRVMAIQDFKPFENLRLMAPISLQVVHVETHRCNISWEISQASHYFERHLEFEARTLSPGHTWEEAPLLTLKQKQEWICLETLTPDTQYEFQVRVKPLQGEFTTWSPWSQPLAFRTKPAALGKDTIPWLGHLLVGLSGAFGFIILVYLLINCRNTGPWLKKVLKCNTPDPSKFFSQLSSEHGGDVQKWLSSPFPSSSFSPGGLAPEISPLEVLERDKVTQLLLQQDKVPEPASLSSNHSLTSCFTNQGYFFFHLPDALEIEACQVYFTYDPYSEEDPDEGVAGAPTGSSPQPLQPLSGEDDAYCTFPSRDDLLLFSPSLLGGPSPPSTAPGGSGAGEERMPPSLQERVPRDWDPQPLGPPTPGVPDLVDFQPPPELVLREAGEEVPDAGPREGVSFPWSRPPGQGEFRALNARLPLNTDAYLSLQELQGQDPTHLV
T1 sequence (looked up) 3: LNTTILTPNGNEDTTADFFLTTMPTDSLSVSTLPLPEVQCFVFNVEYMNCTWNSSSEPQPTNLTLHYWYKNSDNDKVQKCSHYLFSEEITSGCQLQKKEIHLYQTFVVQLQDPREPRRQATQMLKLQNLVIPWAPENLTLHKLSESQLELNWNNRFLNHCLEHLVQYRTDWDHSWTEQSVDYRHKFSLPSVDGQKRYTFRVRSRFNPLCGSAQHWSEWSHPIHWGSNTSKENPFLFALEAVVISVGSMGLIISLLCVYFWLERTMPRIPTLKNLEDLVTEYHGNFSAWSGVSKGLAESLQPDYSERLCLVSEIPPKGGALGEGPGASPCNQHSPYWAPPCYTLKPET

B1: pNOVI V2K K91_J1_IL-2Rα_1_238_CM1_IL-2_21_153_CM1 VKCK_IL-2Rα_1_238_CM1_IL-2_21_153_CM1 VHCH (antibody, human IgG1, kappa)
light: ELCDDDPPEIPHATFKAMAYKEGTMLNCECKRGFRRIKSGSLYMLCTGNSSHSSWDNQCQCTSSATRNTTKQVTPQPEEQKERKTTEMQSPMQPVDQASLPGHCREPPPWENEATERIYHFVVGQMVYYQCVQGYRALHRGPAESVCKMTHGKTRWTQPQLICTGEMETSQFPGEEKPQASPEGRPESETSCLVTTTDFQIQTEMAATMETSIFTTEGGGGSVHMPLGFLGPGGGGS[about 150 residues left out]GGGGSVHMPLGFLGPGGSDIQMTQSPSSLSASVGDRVTITCNVDQVIANWLNWYQQKPGKAPKLLIYAASSLQSGVPSRFSGSGSGTDFTLTISSLQPEDFATYYCQQMHPRAPKQFGQGTKVEIKRTVAAPSVFIFPPSDEQLKSGTASVVCLLNNFYPREAKVQWKVDNALQSGNSQESVTEQDSKDSTYSLSSTLTLSKADYEKHKVYACEVTHQGLSSPVTKSFNRGEC
heavy: ELCDDDPPEIPHATFKAMAYKEGTMLNCECKRGFRRIKSGSLYMLCTGNSSHSSWDNQCQCTSSATRNTTKQVTPQPEEQKERKTTEMQSPMQPVDQASLPGHCREPPPWENEATERIYHFVVGQMVYYQCVQGYRALHRGPAESVCKMTHGKTRWTQPQLICTGEMETSQFPGEEKPQASPEGRPESETSCLVTTTDFQIQTEMAATMETSIFTTEGGGGSVHMPLGFLGPGGGGS[about 150 residues left out]GGGGSVHMPLGFLGPGGS[about 120 residues left out][about 100 residues left out][human IgG1 Fc left out]
notes: masked K91 fusion, uncleaved; also called n1021; construct No 1021
B2: pNOVI V2K K91_M4_IL-2Rα_1_238_CM1_IL-2 Q126T_21_153_CM1 VKCK IL-2Rβ_1_239_CM1_VHCH (antibody, human IgG1, kappa)
light: ELCDDDPPEIPHATFKAMAYKEGTMLNCECKRGFRRIKSGSLYMLCTGNSSHSSWDNQCQCTSSATRNTTKQVTPQPEEQKERKTTEMQSPMQPVDQASLPGHCREPPPWENEATERIYHFVVGQMVYYQCVQGYRALHRGPAESVCKMTHGKTRWTQPQLICTGEMETSQFPGEEKPQASPEGRPESETSCLVTTTDFQIQTEMAATMETSIFTTEGGGGSVHMPLGFLGPGGGGS[about 150 residues with changes left out]GGGGSVHMPLGFLGPGGSDIQMTQSPSSLSASVGDRVTITCNVDQVIANWLNWYQQKPGKAPKLLIYAASSLQSGVPSRFSGSGSGTDFTLTISSLQPEDFATYYCQQMHPRAPKQFGQGTKVEIKRTVAAPSVFIFPPSDEQLKSGTASVVCLLNNFYPREAKVQWKVDNALQSGNSQESVTEQDSKDSTYSLSSTLTLSKADYEKHKVYACEVTHQGLSSPVTKSFNRGEC
heavy: AVNGTSQFTCFYNSRANISCVWSQDGALQDTSCQVHAWPDRRRWNQTCELLPVSQASWACNLILGAPDSQKLTTVDIVTLRVLCREGVRWRVMAIQDFKPFENLRLMAPISLQVVHVETHRCNISWEISQASHYFERHLEFEARTLSPGHTWEEAPLLTLKQKQEWICLETLTPDTQYEFQVRVKPLQGEFTTWSPWSQPLAFRTKPAALGKDGGGGSVHMPLGFLGPGGS[about 120 residues left out][about 100 residues left out][human IgG1 Fc left out]
notes: masked K91 fusion with IL-2 Q126T, uncleaved; also called n800; construct No 800
B3: pNOVI V2K K91_IL-2_CM1_VKCK_IL-2Rα WO LIN CM1_VHCH (antibody, human IgG1, kappa)
light: [about 150 residues left out]GGGGSVHMPLGFLGPGGSDIQMTQSPSSLSASVGDRVTITCNVDQVIANWLNWYQQKPGKAPKLLIYAASSLQSGVPSRFSGSGSGTDFTLTISSLQPEDFATYYCQQMHPRAPKQFGQGTKVEIKRTVAAPSVFIFPPSDEQLKSGTASVVCLLNNFYPREAKVQWKVDNALQSGNSQESVTEQDSKDSTYSLSSTLTLSKADYEKHKVYACEVTHQGLSSPVTKSFNRGEC
heavy: ELCDDDPPEIPHATFKAMAYKEGTMLNCECKRGFRRIKSGSLYMLCTGNSSHSSWDNQCQCTSSATRNTTKQVTPQPEEQKERKTTEMQSPMQPVDQASLPGHCREPPPWENEATERIYHFVVGQMVYYQCVQGYRALHRGPAESVCKMTHGKTRWTQPQLICTGEMETSQFPGEEKPQASPEGRPESETSCLVTTTDFQIQTEMAATMETSIFTTEVHMPLGFLGP[about 120 residues left out][about 100 residues left out][human IgG1 Fc left out]
notes: masked K91 fusion, uncleaved; also called n291; construct No 291
B4: pNOVI V2K K91_IL-2 WO LIN CM1 VKCK_IL-2Rα WO LIN CM1_VHCH (antibody, human IgG1, kappa)
light: [about 150 residues left out]VHMPLGFLGPDIQMTQSPSSLSASVGDRVTITCNVDQVIANWLNWYQQKPGKAPKLLIYAASSLQSGVPSRFSGSGSGTDFTLTISSLQPEDFATYYCQQMHPRAPKQFGQGTKVEIKRTVAAPSVFIFPPSDEQLKSGTASVVCLLNNFYPREAKVQWKVDNALQSGNSQESVTEQDSKDSTYSLSSTLTLSKADYEKHKVYACEVTHQGLSSPVTKSFNRGEC
heavy: ELCDDDPPEIPHATFKAMAYKEGTMLNCECKRGFRRIKSGSLYMLCTGNSSHSSWDNQCQCTSSATRNTTKQVTPQPEEQKERKTTEMQSPMQPVDQASLPGHCREPPPWENEATERIYHFVVGQMVYYQCVQGYRALHRGPAESVCKMTHGKTRWTQPQLICTGEMETSQFPGEEKPQASPEGRPESETSCLVTTTDFQIQTEMAATMETSIFTTEVHMPLGFLGP[about 120 residues left out][about 100 residues left out][human IgG1 Fc left out]
notes: masked K91 fusion, uncleaved; also called n361; construct No 361

What follows are binders tested against T2, CD47 at the surface of Peak cells (human, UniProt Q08722) (assay: flow cytometry, Peak cells, before cleavage).
T2 construct: whole, on cells; also called cell surface CD47
Protocol: (§1) Binding activity of antibody-cytokine/receptor fusions before and after cleavage was also evaluated by flow cytometry. Peak cells derived from HEK 293 which are human cells expressing CD47 were used to evaluate masking efficacy and binding recovery to CD47 by flow cytometry. Peak cells were diluted in cold FACS buffer (PBS, 2% BSA) to 1.2×10⁶ cells/mL. 3×10⁵ cells/well were added in a 96 well V-bottom plate. The plate was then centrifugated for 5 min at 1300 rpm, 4° C. Supernatants were removed and cells were washed twice using FACS buffer. A serial dilution of antibody-cytokine/receptor fusions previously digested with MMP-9 or not digested as described above was prepared in FACS buffer. An irrelevant antibody was included. Then, 150 μL of each diluted antibody were added in corresponding well and incubated for 30 min at 4° C. Cells were washed twice with FACS buffer and 100 μL of a mouse anti human Fc-PE conjugated secondary antibody were added and the plate was incubated for 20 min at 4° C. Cells were then washed twice with FACS buffer. Finally, 150 μL of SYTOX blue dead cell stain (ThermoFisher) diluted to 1/5000 in FACS buffer were added before detection by flow cytometry with Cytoflex (Beckman Coulter). Acquisition was performed with 10000 events for each well. Data were analyzed by FlowJo software.

EC50 [nM]	Binder
14.3	B1
47	B2
6.9	B3
9.9	B4

These binders were tested against T3, His-tagged human CD47 (human, UniProt Q08722 in part, limits assumed) (assay: BLI, His-CD47 on HIS1K sensor, antibody 15 µg/mL).
T3 construct: loaded on HIS1K biosensors at 2.5 µg/mL; also called target antigen; not shown: His tag
Protocol: The capacity of the masking domains to inhibit binding activity of the antibody was evaluated by Bio-Layer Interferometry (BLI). […] Binding experiments were performed to evaluate the masking efficiency and the binding recovery after cleavage of the masking domains. BLI was performed on an Octet RED96 system (Sartorius). His-tagged human CD47 was diluted at 2.5 μg/mL in Kinetic Buffer (KB) (Sartorius) and loaded on HIS1K biosensors (anti-His tag antibody biosensors, Sartorius) for 300 seconds. Loaded biosensors were dipped into antibodies diluted at 15 μg/mL in KB for 300 seconds to monitor association. Then, biosensors were transferred in KB for dissociation for 60 seconds. Binding profiles were then analyzed with ForteBio Data Analysis software.

Binding before cleavage (BLI) [nm]	Binder
0.2	B1
0.4	B2
0.8	B3
0.6	B4

Each binder was assayed against T2, CD47 at the surface of Peak cells (assay: flow cytometry, Peak cells; EC50 before / EC50 after cleavage).
Protocol: as §1

Binding recovery (BC/AC)	Binder
32	B2
18	B3
5	B4

What follows are binders tested against T1, high affinity trimeric IL-2R (IL-2Rα, …) (assay: cell-based or functional assay).

EC50 before cleavage IL-2, HEK Blue IL-2 αβγ reporter assay [nM]	EC50 ratio (BC/AC), HEK Blue IL-2 αβγ reporter assay	Binder
0.26	26	B1
2.85	6	B2
0.05	4	B3
0.1		B4
